Data on 89 molecules can be found in PubChem BioAssay AID463173 (ICCB-Longwood Screening Facility, Harvard Medical School, 2010).

Screen size: about 52,000 compounds; about 4,300 (8.3%) were called active. Rule as the data show it: active = survival mostly below about 52% (no sharp cut-off); inactive = mostly above about 56%. Some of the results follow.

The assay has as its system DeltatarO mutant. The experiment in a line: growth inhibition of S. aureus wild type versus tarO mutant, primary screen, teichoic acid synthesis inhibitors, RN4220, OD600 (AID 463173). The conditions noted are these: OD600, 18 h, active compounds read low, screened at 18.75 µg/mL (by protocol).
Consider `Cc1ccccc1NC(=O)c1ccc(F)c(S(=O)(=O)N2CCc3ccccc3C2)c1`, for which the survival is inactive: 61%.
For `COC(=O)Cn1ccc2cc(S(=O)(=O)N3CCCCC3)ccc21`, the survival is inactive: 93%.
On to `Cc1cc(C)c(S(=O)(=O)N2CCC(N3CCN(Cc4ccc(F)cc4)C(=O)C3=O)CC2)c(C)c1`, for which the survival was inactive: 83%.
On to `CC(C)c1ccc(NC(=O)c2cnn3c(C(F)F)cc(-c4ccccc4)nc23)cc1`, for which the survival was inactive: 65%.
Take `Cc1ccc(C(C)C)c(OCCCn2c(=O)oc3ccc(C)cc32)c1`: the survival was active: -5%.
`CCc1ccccc1NC(=O)Cn1nnc(C(=O)Nc2ccc(OC)c(OC)c2)c1N`: the survival was inactive: 95%.
Under `CCOc1cccc(C(=O)Nc2ccc(-c3nc4cc(C)cc(C)c4o3)cc2)c1` stands inactive: 115%; under `CCCCN(Cc1ccco1)C(=O)c1cc2c(s1)-c1c(C)cccc1OC2`, active: -2%; under `Cc1cccc(NC(=O)c2oc3ccc(S(=O)(=O)N(C)C4CCCCC4)cc3c2C)c1C`, inactive: 104%.
Under `CCc1ccc(S(=O)(=O)N2CCN(c3ccc(Cl)c(Cl)c3)CC2)cc1` stands inactive: 118%; under `CCOC(=O)c1ccccc1NC(=O)c1nn(-c2ccc(C)cc2)c(=O)n(C)c1=O`, inactive: 79%.
As to `CCCS(=O)(=O)N1CC(=O)N(c2cc(C)cc(C)c2)C(C)(C(=O)NC2CCCCCC2)C1` (centres undefined), the survival was inactive: 81%.
With `N#Cc1ccc(NC(=O)c2ccc3c(c2)nnn3C2CCCC2)cc1` the figure was inactive: 126%; with `CCOC(=O)N1CCC(NC(=O)c2cnn(-c3ccc(C)cc3)c2C2CCN(C(=O)OC(C)(C)C)CC2)CC1`, inactive: 88%.
For the molecule `COc1ccc(-n2c(SCc3nc(-c4ccc(Cl)cc4)no3)nnc2-c2ccncc2)cc1`, the survival was active: 49%.
Turning to `COc1ccc(Nc2oc(-c3ccc(COc4ccccc4)o3)nc2C#N)cc1`, the survival was inactive: 100%.
Take `CCOc1ccccc1C(=O)Nc1cc(-c2nc3cccnc3s2)ccc1C`: the survival was active: 37%.
Turning to `CCC(Sc1ncnc2sc3c(c12)CCCC3)C(=O)OCC(C)C` (centres undefined), the survival is active: -6%.
With `CC(C)(C)C(=O)Nc1ccc2nc(SCCOc3ccccc3Cl)sc2c1` the figure was inactive: 89%.
Consider `Cc1ccc(C)c(N2CCN(C(=O)C3CCC(CNS(=O)(=O)c4ccc(Br)s4)CC3)CC2)c1` (centres undefined), for which the survival was inactive: 67%.
For `COc1cccc(NC(=O)Cn2c(=O)n(CCCCC(=O)NCc3ccc4c(c3)OCO4)c(=O)c3ccccc32)c1`, the survival was inactive: 84%.
Consider `COc1ccc(CCN2C(=O)N(c3ccc(C)cc3)C(=O)C2CC(=O)Nc2ccc(OC)cc2)cc1` (centres undefined), for which the survival is inactive: 69%.
Turning to `CCOC(=O)C1CCCN(C(=O)Cn2ncc3c4ccccc4n(C)c3c2=O)C1` (centres undefined), the survival was inactive: 121%.
On to `COc1cc(NC(=O)c2cc(S(=O)(=O)N3CCC(C)CC3)cn2C)cc(OC)c1OC`, for which the survival was inactive: 102%.
With `Cc1cccc(NC(=O)CN2C(=O)CC(c3ccccc3)Sc3ccccc32)c1` (centres undefined), the survival is inactive: 76%.
With `Cc1ccccc1NC(=O)Cn1nnc(C(=O)NCc2cccs2)c1N`, the survival was inactive: 91%.
Consider `Cc1ccc(NC(=O)CCc2c(C)nc3ncnn3c2C)cc1Cl`, for which the survival was inactive: 105%.
For the molecule `CCc1ccc(NS(=O)(=O)c2ccc(NC(=O)N3CCCC3)cc2)cc1`, the survival was inactive: 95%.
As for `Cc1ccc(C)c(CSc2cn(CCNC(=O)c3cccs3)c3ccccc23)c1`, the survival is inactive: 71%.
Regarding `CCc1ccc(NC(=O)Cn2nnc(C(=O)Nc3ccc(F)cc3)c2N)cc1`, the survival was inactive: 99%.
In the case of `O=C(Nc1cccc(O)c1)c1cc(-c2ccccc2F)no1`, the survival is inactive: 82%.
Take `CC(CNC(=O)c1csc2c1CCCCC2)c1ccccc1` (centres undefined): the survival was active: -1%.
On to `CCOc1ccccc1NC(=O)NCc1noc2ccc(C)cc12`, for which the survival was active: 35%.
For the molecule `COc1cccc2c1cc1c(=O)n(CC(=O)NCc3ccc(N(C)C)cc3)nc(C)n12`, the survival was inactive: 94%.
With `COc1cc(C(=O)NCC(c2ccc3c(c2)OCO3)N2CCN(C)CC2)cc(OC)c1OC` (centres undefined) the figure was inactive: 94%; with `CC(C)c1ccc2oc(-c3cc(NC(=O)c4cccnc4)ccc3Cl)nc2c1`, active: -2%.
In the case of `Cc1ccc(N2CC(C(=O)NCc3nnnn3-c3ccc(C)c(C)c3)CC2=O)cc1C` (centres undefined), the survival was inactive: 75%.
With `O=c1n(Cc2ccc(Cl)cc2)nc2n1-c1ccccc1OC2`, the survival is inactive: 71%.
In the case of `COc1cccc(NC(=O)c2sc3nc(C)c(C(=O)Nc4ccc(C)cc4C)c(-c4ccc(C)o4)c3c2N)c1`, the survival was active: 39%.
With `CCC1CCCCN1CCCNC(=O)c1c(C)oc2ncn(CC(C)C)c(=O)c12` (centres undefined), the survival is inactive: 89%.
In the case of `O=C(O)c1ccc(NS(=O)(=O)c2ccc(N3C(=O)CCC3=O)cc2)cc1`, the survival is inactive: 103%.
On to `CC(C)(O)C1Cc2cc(/C=C/C(=O)O)c(O)cc2O1` (centres undefined), for which the survival was inactive: 88%.
As to `Cc1ccc(S(=O)(=O)NC(CO)C(=O)O)cc1` (centres undefined), the survival was inactive: 101%.
Under `Cc1cccc2c(=O)cc(CSc3ccccc3NC(=O)c3cccc(Br)c3)[nH]c12` stands inactive: 86%.
Under `O=C(Nc1cccc(F)c1)C1CCN(S(=O)(=O)c2ccc3[nH]c4c(c3c2)CCCCC4)CC1` stands inactive: 89%.
`COc1ccc(NC(=O)CSc2nc3nc(C)cc(C)n3n2)cc1OC`: the survival is inactive: 87%.
On to `COc1ccc(NC(=O)C2CCCN(c3cnccn3)C2)c(OC)c1` (centres undefined), for which the survival was inactive: 107%.
With `CCC(Cc1ccccc1)NC(=O)CCS(=O)(=O)c1cc2c(cc1Cl)NC(=O)CO2` (centres undefined), the survival was inactive: 91%.
Take `CCOc1ccc(CNC(=O)Nc2ccc3c(c2)N(C)C(=O)c2ccccc2S3)cc1`: the survival was inactive: 75%.
On to `Cc1ccc(NC(=O)CSc2cn(CC(=O)N3CCOCC3)c3ccccc23)cc1Cl`, for which the survival was inactive: 88%.
`CCC(C)n1c(=N)c(C(=O)NC2CCCC2)cc2c(=O)n3ccccc3nc21` (centres undefined): the survival was inactive: 65%.
For the molecule `COc1cccc(N2CCN(C(=O)c3cc4c(=O)n(Cc5cccnc5)ccc4nc3C)CC2)c1`, the survival is inactive: 102%.
With `COc1ccc(NC(=O)Cn2c(SCc3ccc(F)cc3)nc3cccnc32)c(OC)c1`, the survival is inactive: 76%.
`CC1CCn2c(nc3cc(C(=O)NCCc4ccccc4)ccc32)C1` (centres undefined): the survival is inactive: 84%.
Take `COC(=O)c1ccccc1NC(=O)CCC(=O)N1CC(C)Sc2ccccc21` (centres undefined): the survival was active: 42%.
For `Cc1ccc2c(=O)cc(C(=O)Nc3ccc(S(=O)(=O)N4CCCCC4)cc3)oc2c1`, the survival was inactive: 58%.
As for `COC(=O)C(NC(=O)CCc1c(C)nc2cc(-c3cccc(F)c3)nn2c1C)C(C)C` (centres undefined), the survival is inactive: 73%.
Under `CCCn1cc(S(=O)(=O)c2ccccc2)c(=O)c2cc(F)c(N3CCCCCC3)cc21` stands inactive: 67%; under `O=C(Cn1cc2c(n1)CCCC2)Nc1cc(C(F)(F)F)ccc1Cl`, inactive: 87%.
With `Cc1nc(SCc2ccccc2Cl)c(C#N)c(C)c1C` the figure was inactive: 48%.
Consider `Cc1cc(C)cc(NC(=O)c2sc3nc4n(c(=O)c3c2C)N=C(c2ccc(F)cc2)CS4)c1`, for which the survival is inactive: 124%.
Turning to `COc1ccc2sc(N(Cc3cccnc3)C(=O)c3cccs3)nc2c1`, the survival was inactive: 76%.
Under `Cn1c(=O)c2nc3ccc(NC(=O)C(F)(F)F)cc3nc2n(C)c1=O` stands inactive: 54%.
For the molecule `Cc1ccc2c(c1)C(c1ccccc1)N(C(=O)c1ccc(S(=O)(=O)N3CCCC3)cc1)CC(=O)N2` (centres undefined), the survival was inactive: 65%.
As to `Cc1ccc(NC(=O)CN2C(=O)CSc3ccc(S(=O)(=O)N(C)C)cc32)c(C)c1`, the survival was inactive: 73%.
In the case of `O=S(=O)(c1ccccc1)c1nnn2c1nc(N1CCN(c3ccccc3)CC1)c1cc(Cl)ccc12`, the survival was inactive: 91%.
As for `COc1ccc2sc(N(Cc3cccnc3)C(=O)C3COc4ccccc4O3)nc2c1` (centres undefined), the survival is inactive: 86%.
`Cc1ccc(-n2ncc3c(NC4CCCC4)ncnc32)cc1`: the survival was inactive: 80%.
For `CCOC(=O)/C(C#N)=C/c1ccc(-c2ccccc2)o1`, the survival is inactive: 52%.
For the molecule `CCOc1ccc(OCC)c(NC(=O)c2cnn(-c3ccc(F)cc3)c2C2CCN(C(=O)OC(C)(C)C)CC2)c1`, the survival is inactive: 55%.
For `CCOC(=O)C1CCCN(C(=O)Cn2ncc3c(C)n(Cc4ccc(F)cc4)c(C)c3c2=O)C1` (centres undefined), the survival is inactive: 106%.
Under `C=CCn1c(C)c(/C=C/C2=CCN(C)CC2)c2ccccc21` stands inactive: 78%; under `O=C(Nc1ccc2nc(SCCOc3ccccc3Cl)sc2c1)c1ccco1`, active: 14%; under `COc1cccc(-c2nn(C)c3sc(C(=O)NCCc4cccc(C)c4)cc23)c1`, inactive: 130%.
`COc1ccc(C)cc1NC(=O)c1c(C(=O)Nc2cccc(C)c2C)sc2nc(C)cc(=O)n12`: the survival is active: 61%.
Take `Cc1nnc(N2CCN(c3cccc(Cl)c3)CC2)c2c1nnn2Cc1ccc(F)cc1`: the survival is inactive: 79%.
In the case of `CCn1c(=O)cc(SCC(=O)Nc2cc(Cl)ccc2OC)c2ccccc21`, the survival is inactive: 67%.
Under `Cc1ccc(C(=O)Nc2nnc(S(=O)(=O)N(C)Cc3ccc(F)cc3)s2)cc1` stands inactive: 60%; under `CC1CCCN(c2nc(-c3ccccc3O)nc3ccccc23)C1` (centres undefined), active: -6%; under `CCOc1ccc(-n2c(C)nc3cc(C(=O)NCc4ccc(C)cc4)ccc32)cc1`, inactive: 82%.
For the molecule `CCOc1ccc2c(c1)c(=O)c(C(=O)c1ccc3c(c1)OCO3)cn2Cc1cccc(F)c1`, the survival is inactive: 76%.
For the molecule `COc1ccc(-n2ccnc(NCc3cccs3)c2=O)cc1`, the survival was active: 20%.
With `Cc1ccc2[nH]c(=O)c(CN(CCCO)C(=O)NC3CCCCC3)cc2c1` the figure was inactive: 95%.
In the case of `CCc1ccc(Cn2c(CNS(=O)(=O)c3ccc([N+](=O)[O-])cc3)nc3cccnc32)cc1`, the survival was active: 8%.
Under `COCCCNC(=O)c1c(-c2ccccc2)c(-c2ccccc2)nn(C)c1=O` stands inactive: 50%; under `O=C(Nc1ccc2nc3n(c(=O)c2c1)CCCCC3)C(=O)Nc1ccccc1F`, inactive: 57%.
On to `Cc1cccc(Nc2nn3c(=O)c4cc5c(cc4nc3s2)OCO5)c1`, for which the survival is inactive: 116%.
With `CCn1nc(C)c(CCN(C)C(=O)Nc2ccc(C)c(Cl)c2)c1C` the figure was inactive: 88%; with `COCCNC(=O)c1ccc(-n2c(-c3ccccc3)cc3c2CCC(C)C3)cc1` (centres undefined), inactive: 77%.
